# Experimental data: PubChem BioAssay AID1466 (National Center for Advancing Translational Sciences (NCATS), 2008)
# Among all 200,000 compounds or so, about 10 (0.005%) were called active. The shares of active, inactive and inconclusive entries below differ from those in the screen. Calls come from the whole dose curve; as a rule, active = well fitted inhibition curve with a large enough effect; inconclusive = small, poorly fitted or top-dose-only effect, or effect the other way, or another doubt; inactive = no such curve, though single readings can be large or run the other way. Potencies of inconclusive entries are left out as doubtful fits.
# Target: Lysosomal alpha-glucosidase (Homo sapiens) (UniProt P10253)
# Test: qHTS Assay for Inhibitors of Human alpha-Glucosidase as a Potential Chaperone Treatment of Pompe Disease;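 for activity change, negative = inhibition: plate controls were uninhibited enzyme wells for no effect and no-enzyme background for full effect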
# Settings: purified human GAA, 4-MU-alpha-glucoside fluorescence; activity change, negative = inhibition: at 76.9 µM (top of the series) unless noted
# How it was run: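 Compounds are titrated up to 77 uM against 4 nM human enzyme. Substrate 4-methylumbelliferyl-alpha-D-pyranoside (400 uM) reacts 20 min at room temperature in pH 5.0 buffer; liberated 4-methylumbelliferone is read at 440 nm.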
# Potency is the fitted concentration of half-maximal effect; tags give direction and shape of the fitted curve.
Compound,"activity change, negative = inhibition",Potency
Cc1csc2c(N3CCN(C(=O)Nc4ccc(OC(F)(F)F)cc4)CC3)ncnc12,inconclusive: -15.6% [inhibitor],–
COc1ccccc1C(=O)Nc1ccccn1,–,"inconclusive [inhibitor, full curve, poor fit]"
CC1(C)CC(=O)C(N=Nc2ccc(C(F)(F)F)cc2[N+](=O)[O-])=C(O)C1,–,"inconclusive [inhibitor, full curve, poor fit]"
COc1ccc(CCNC(=O)CC2SC(N)=NC2=O)cc1OC (configuration not stated),inconclusive: 10.9% [activator],–
Cc1ccc(O)c(-c2cc(C(=O)NCc3ccncc3)[nH]n2)c1,–,"inconclusive [inhibitor, single point]"
Cc1cc(C)n(-c2cc(C(=O)O)cc(C(=O)O)c2)n1,inconclusive: 17.8% [activator],–
Cc1ccc2c(c1)c1ncnc(N3CCOCC3)c1n2C,inconclusive: 56.3% [activator],–
Cn1c(=O)c2nc(-c3ccc(Cl)cc3Cl)oc2c2ccccc21,–,"inconclusive [activator, single point]"
C=CCn1c(O)c(N=NC(=S)Nc2ccccc2F)c2cc(S(=O)(=O)N3CCOCC3)ccc21,–,"inconclusive [inhibitor, single point]"
Cc1cccn2c(NCc3ccc4c(c3)OCO4)c(-c3ccc(O)cc3)nc12,–,"inconclusive [activator, single point]"
CCOc1cc(/C=N/N=C(N)N)ccc1OCc1ccc(Cl)cc1,–,"inconclusive [inhibitor, single point]"
Cc1cccn2c(=O)c3cc(C(=O)NCCCN4CCCC4=O)n(C)c3nc12,–,"inconclusive [activator, partial curve]"
CCCc1cc(N2CCC(C(N)=O)CC2)nc(-c2ccccc2)n1,inconclusive: 17.2% [activator],–
C=CC[n+]1c(C)csc1Nc1ccc(C)cc1,–,"inconclusive [inhibitor, partial curve]"
CC(C)Cn1cc(C(=O)N2CCC(C)CC2)c2c3ccccc3n(C)c2c1=O,–,"inconclusive [activator, partial curve]"
Cc1c(/C=N\NC(=O)c2cc3ccccc3o2)c2ccccc2n1C,–,"inconclusive [inhibitor, partial curve]"
Cc1cc(C)cc(Nc2c3c(nc4ncnn24)CCC3)c1,inconclusive: 15.4% [activator],–
COC(=O)c1sc2nc3c(c(-c4cccs4)c2c1N)CCCC3,–,"inconclusive [inhibitor, single point]"
CN1C(=O)C(CC(=O)Nc2ccc(F)cc2)N(Cc2ccco2)C1=S (configuration not stated),inconclusive: 9.62% [activator],–
CCOCCCNC(=S)N1CCN(Cc2ccc3c(c2)OCO3)CC1,–,"inconclusive [inhibitor, partial curve]"
CCC1(C)Cc2ccccc2-c2nc(NCCO)n(-c3ccc(C)cc3)c(=O)c21 (configuration not stated),–,"inconclusive [activator, partial curve]"
Cc1cccc(C)c1OCc1nnc(SCC(=O)Nc2ccccc2F)o1,–,"inconclusive [inhibitor, partial curve]"
CC(C)(C)n1nnnc1C(c1cccs1)N(Cc1ccccc1)Cc1ccco1 (configuration not stated),inconclusive: -15.8% [inhibitor],–

Compound,"activity change, negative = inhibition",Potency
CCOc1ccc(-n2c(SCc3cc(=O)oc4cc(C)ccc34)nnc2-c2cccnc2)cc1,–,"inconclusive [inhibitor, single point]"
CC(C)(C)NC(=O)CSc1nncn1NCc1ccccc1,–,"inconclusive [inhibitor, single point]"
CCOC(=O)Nc1ccc2c(c1)N(C(=O)N1CCN(C)CC1)c1ccccc1CC2,inconclusive: 8.85% [activator],–
Cc1cccc2cc3c(N)c(C(=O)N4CCOCC4)sc3nc12,–,"inconclusive [inhibitor, single point]"
CCN(c1ccccc1)S(=O)(=O)c1cccc(C(=O)OCc2nc3sc(C)c(C)c3c(=O)[nH]2)c1,–,"inconclusive [inhibitor, full curve, poor fit]"
C=CCOc1ccc(CNc2ccc3[nH]c(=O)[nH]c3c2)cc1OCC,inactive: 5.87%,–
Cc1cc2nc(SCCOC(=O)Nc3ccccc3)nc(C)c2cc1C,–,"inconclusive [inhibitor, full curve]"
O=C(CN1CCC(c2nc3ccccc3s2)CC1)N1CCCCC1,–,"inconclusive [inhibitor, partial curve]"
CCOc1ccc(NC(=O)C2CCN(S(=O)(=O)c3c(C)n[nH]c3C)CC2)cc1,–,"inconclusive [inhibitor, single point]"
O=C(COc1ccc(S(=O)(=O)NC2CCCCC2)cc1)NC1CCCC1,inconclusive: 15.7% [activator],–
COc1cc2c(C#N)c(N3CCOCC3)nc(N)c2c(N)n1,–,"inconclusive [activator, single point]"
Cn1c(=O)c(NC2CCCCC2)c2c3c(cccc31)C(=O)c1ccccc1-2,–,"inconclusive [inhibitor, full curve]"
CN(C)CCNC(=O)c1ccc2c(c1)N(Cc1ccc(F)cc1)CCS2,–,"inconclusive [activator, partial curve]"
Cc1cc(N2CCOCC2)nc2cc(O)ccc12,–,"inconclusive [activator, partial curve]"
O=C(CSc1nc2ccccc2n1CCc1ccccc1)c1ccc(O)c(O)c1,inactive: -4.45%,–
NC(=O)c1ccccc1N/C=C/C(=O)c1cccs1,–,"inconclusive [inhibitor, single point]"
CCN(CCNC(=O)c1ccc(CSc2nc3ccncc3[nH]2)cc1)c1ccccc1,–,"inconclusive [inhibitor, full curve, poor fit]"
COc1cc(NC(=O)CN2C(=O)NC(C)(c3ccc4ccccc4c3)C2=O)c(C)cc1[N+](=O)[O-] (configuration not stated),inconclusive: -15.8% [inhibitor],–
COc1ccc(-c2ccc(C#N)c(SCC(=O)NCCc3ccccc3)n2)cc1OC,–,"inconclusive [activator, partial curve]"
COC(=O)/C=C1/S/C(=N/NC(=O)c2ccccc2)NC1=O,–,"inconclusive [inhibitor, single point]"
O=C(CCCN1C(=O)c2ccccc2C1=O)Nc1sc2c(c1C(=O)NCc1ccco1)CCC2,–,"inconclusive [inhibitor, single point]"
CCn1c(CNc2ccccc2Cl)nnc1SCCN1CCCCC1,–,"inconclusive [inhibitor, single point]"
Nc1c(C(=O)NCCN2CCOCC2)c2nc3ccccc3nc2n1CCc1ccccc1F,–,"inconclusive [activator, partial curve]"

Compound,"activity change, negative = inhibition",Potency
Cc1nnc(NC(=O)CSc2n[nH]c(-c3ccccc3)n2)s1,inconclusive: 20.4% [activator],–
O=C(Cn1cnc2ccccc21)N/N=C/c1cccc([N+](=O)[O-])c1,inconclusive: 4.15% [activator],–
CCOc1cc(/C=C2\SC(=S)N(C(C(=O)O)c3ccccc3)C2=O)ccc1O (configuration not stated),–,"inconclusive [inhibitor, single point]"
Fc1ccccc1-c1n[nH]c(=S)n1CC1CCCO1 (configuration not stated),inconclusive: 7.22% [activator],–
COc1cc2c(cc1OC)-c1cc(OCCN3CCOCC3)nc(=O)n1CC2,–,"inconclusive [activator, single point]"
CN(C)c1ccc(/C=C/c2nc3ccccc3s2)cc1,inactive: 3.41%,–
CCc1cc(=O)oc2cc(OCC=C(C)C)ccc12,–,"inconclusive [inhibitor, single point]"
O=C(c1cccc(F)c1)N1CCc2ccccc21,–,"inconclusive [inhibitor, single point]"
c1ccc(OCc2nn3c(Cn4cnc5ccccc54)nnc3s2)cc1,inactive: -0.0774%,–
COc1ccccc1-c1nc(C(N)=O)c2[nH]c(=O)n(-c3cccc(C)c3)c2n1,–,"inconclusive [activator, partial curve]"
O=C(OCc1c(F)cccc1Cl)c1cnccn1,–,"inconclusive [inhibitor, single point]"
Cc1cc(NCc2ccccn2)n2ncc(-c3ccccc3)c2n1,inactive: -13.2%,–
O=C(NC1CCCCC1)N1CCc2[nH]c3ccccc3c2C1,inconclusive: 15.8% [activator],–
CS(=O)(=O)C1=C(O)C(=O)N(c2ccccc2)C1c1ccccc1 (configuration not stated),inconclusive: -16% [inhibitor],–
O=C(Nc1nnc(C2CCCO2)s1)c1cccs1 (configuration not stated),–,"inconclusive [activator, single point]"
Cc1cc2oc(=O)cc(CN3CCN(C/C=C/c4ccccc4)CC3)c2cc1O,inconclusive: 15.7% [activator],–
O=C(OC1CCN(c2ncc(C(F)(F)F)cc2Cl)CC1)c1ccccc1,–,"inconclusive [inhibitor, single point]"
Clc1ccc(OCCSCc2nc3ccccc3[nH]2)cc1,inconclusive: -16.1% [inhibitor],–
Cc1ccc(S(=O)(=O)N2CCCCC2C(=O)O)cc1 (configuration not stated),–,"inconclusive [activator, full curve, poor fit]"
COc1ccc2nc(N3C(=O)/C(=C/c4ccccc4)NC3=S)sc2c1,–,"inconclusive [inhibitor, single point]"
COc1cc(CNCc2cccnc2)ccc1OCC(=O)NC(C)(C)C,inconclusive: 9.3% [activator],–
